Measurements published in PubChem BioAssay AID1508642 (National Center for Advancing Translational Sciences (NCATS), 2021).
Out of some 43,000 compounds screened, about 200 (0.47%) were called active. Another 12% or so got no clear call; they are omitted. Calls come from the whole dose curve; as a rule, active = well fitted cell-killing curve with a large enough effect; inconclusive = small, poorly fitted or top-dose-only effect, or effect the other way; inactive = flat fitted curve, though single readings scatter. Some of the results follow.

experiment: Cell viability qHTS assay in S16 Pmp22-F2sN cells; settings: S16 Pmp22-F2sN Schwann cells (luciferase reporters placed in the Pmp22 gene) viability, CellTiter-Glo, 24 h; series mostly up to 57.5 µM; activity change, negative = cytotoxicity: at the top concentration; note: nearly all actives have a fitted effect of over 65% in size
How it was run: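 Seed 500-1,000 S16 Pmp22-F2sN cells per well in phenol-red-free DMEM with 10% heat-inactivated FBS; pin-add 23 nL compound; incubate 24 h at 37C; add CellTiter-Glo, wait 15 min protected from light; read luminescence.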
% is set by controls: 0 for no effect and ±100 for the full control effect.

Row | Structure (SMILES) | activity change, negative = cytotoxicity
1 | Fc1ccc2c(c1)NC(c1ccncc1)=NC(c1cccs1)=N2 | inactive: 1.36%
2 | Cc1c(NC(=O)c2cc(=O)c3cc(Cl)ccc3o2)c(=O)n(-c2ccccc2)n1C | inactive: -1.15%
3 | Cc1cccc(-c2nc(Cn3c(SCc4cccc(C(F)(F)F)c4)nc4ccncc43)c(C)o2)c1 | inactive: -0.353%
4 | CCOCCCn1c(SCC(=O)Nc2ccc(OC)cc2OC)nc2ccccc2c1=O | inactive: 13.6%
5 | CCOC(=O)CSc1nc2ccc(NC(=O)c3ccccc3)cc2s1 | inactive: 9.77%
6 | Cc1ccc(C)c(N2CCN(Cc3nnc(-c4ccccc4)o3)CC2)c1 | inactive: -25%
7 | COc1cccc(C(=O)c2cn(CC(=O)Nc3cccc(C)c3C)c3nc(C)ccc3c2=O)c1 | inactive: 16%
8 | CCc1ccc(C(=O)Nc2ccc3nn(-c4ccc(C)c(Cl)c4)nc3c2)cc1 | inactive: 8.98%
9 | COc1ccc(-c2cn3c(n2)sc2cc(C(=O)Nc4cc(Cl)ccc4C)ccc23)cc1 | inactive: 1.08%
10 | Cc1cccc(C)c1NC(=O)Cn1nc(C)c2sc3ccccc3c2c1=O | inactive: -15.2%
11 | Cc1ccc(CN2CCc3nc(SCC(=O)Nc4cccc(C)c4C)[nH]c(=O)c3C2)cc1 | inactive: -2.4%
12 | CCOc1ccc(NC(=O)CCS(=O)(=O)c2ccc3c(c2)n(C)c(=O)c(=O)n3C)cc1 | inactive: -5.68%
13 | CCOc1ccc(NC(=O)CSc2nc(-c3ccc(F)cc3)cc(C(F)(F)F)c2C#N)cc1 | inactive: 7.61%
14 | Cc1ccc2cccc(NC(=O)C(C)(C)Oc3ccc(Br)cc3)c2n1 | inactive: 7.57%
15 | CCN(Cc1ccccc1)C(=O)CN1C(=O)COc2ccc(S(=O)(=O)N3CCCCCC3)cc21 | inactive: 1.12%
16 | CCn1cc2nc(SCc3ccccc3F)n(Cc3ccc(C)cc3)c(=O)c2n1 | inactive: 5.83%
17 | Cc1ccc(NC(=O)CCS(=O)(=O)c2cccc3nsnc23)c(C)c1 | inactive: 16.2%
18 | CCOC(=O)c1ccccc1NC(=O)Cn1c2ncccc2c(=O)n1-c1ccccc1 | inactive: 17.2%
19 | CCC(=O)N1CCc2cc(Br)cc(S(=O)(=O)NCCc3ccccc3)c21 | inactive: 18.4%
20 | O=C(NCCCN1CCN(c2ccccc2F)CC1)c1nnc(Cc2ccc(Cl)cc2Cl)o1 | inactive: 4.16%
21 | CCOC(=O)c1c(NC(=O)COc2ccc(F)cc2)sc2c1CCC(C)C2 (configuration not stated) | inactive: 7.85%
22 | COc1cccc(CNC(=O)CCNS(=O)(=O)c2ccc3c(c2)oc(=O)n3C)c1 | inactive: -19.4%
23 | Cc1cc(C)c(Cn2c(C(O)c3ccccc3)nc3ccccc32)c(C)c1 (configuration not stated) | inactive: -6.76%
24 | N#C/C(=C\c1ccc(-c2cc(Cl)ccc2Cl)o1)C(=O)Nc1ccccc1C(=O)O | inactive: 0.128%
25 | CC(C)(C)C(=O)Nc1cccc(C(=O)OCc2cc(=O)n3nc(C4CCCCC4)sc3n2)c1 | inactive: 2.69%

Row | Structure (SMILES) | activity change, negative = cytotoxicity
26 | O=C(CSc1nc2ccccc2n1Cc1ccccc1Cl)NCc1ccccc1 | inactive: -8.01%
27 | CCOC(=O)c1[nH]cnc1C(=O)Nc1ccc(F)cc1 | inactive: 4.64%
28 | CCOC(=O)c1c(-c2ccc(OC)cc2)oc2ccc(OCc3ccc(C(=O)OC)cc3)cc12 | inactive: 1.39%
29 | CCNc1c(NC(=O)c2cc(OCC)c(OCC)c(OCC)c2)c(=O)oc2ccccc12 | inactive: -2.26%
30 | COc1cccc(CNC(=O)CCn2cccn2)c1 | inactive: -2.42%
31 | CCOc1ccc(CCNC(=O)CN(c2ccc(C)cc2)S(=O)(=O)N(C)C)cc1OCC | inactive: 2.81%
32 | O=c1c(S(=O)(=O)c2ccccc2)cn(Cc2ccc(F)cc2)c2cc(N3CCCCC3)c(F)cc12 | inactive: -3.66%
33 | Cc1ccc(C)c(NC(=O)c2cc(S(=O)(=O)NCCC3=CCCCC3)ccc2F)c1 | inactive: -12%
34 | COc1ccc(CNC(=O)C(C(C)C)N2Cc3ccccc3C2=O)cc1 (configuration not stated) | inactive: -12.7%
35 | CCCN(CCC)C(=O)C1CCN(c2ncnc3c2nc2n3CCCCC2)CC1 | inactive: 15.8%
36 | Cc1ccc(-n2c(=O)c3c(c4cc(C)ccc4n3C)n(CC(=O)Nc3cc(C)cc(C)c3)c2=O)cc1 | inactive: -1.01%
37 | CC1Cn2cc(C(=O)Nc3cccc(C(F)(F)F)c3)c(=O)c3c(Cl)ccc(c32)O1 (configuration not stated) | inactive: 1.87%
38 | COC(=O)c1nnn(CC(=O)Nc2ccc(Br)c(C)c2)c1N | inactive: 2.19%
39 | Cc1ccc(-c2onc(C)c2C)cc1S(=O)(=O)NC1CCCCC1 | inactive: -6.29%
40 | O=C(Cc1ccccc1)Nc1c(C(=O)Nc2ccccc2F)oc2ccccc12 | inactive: 15.5%
41 | CCc1ccc(-c2[nH]c3c(c2-c2sc(C)c(C(=O)OC)c2O)c(=O)n(C)c(=O)n3C)cc1 | inactive: 2.49%
42 | COc1ccc(NC(=O)c2ccc(COc3ccccc3OC)o2)cc1OC | inactive: -1.57%
43 | CCn1cc(C(=O)NCc2ccccc2)c(=O)c2cc(S(=O)(=O)N3CCCCCC3)ccc21 | inactive: -6.57%
44 | COc1cccc(CNC(=O)CCC(=O)N2Cc3cccc(OC)c3Oc3ncccc32)c1OC | inactive: 1.5%
45 | Cc1c(NC(=O)c2ccccc2F)cccc1-c1nc2cccnc2s1 | inactive: 21%
46 | O=C(Cn1ncc2c(=O)oc3ccccc3c21)NCc1ccc(Cl)cc1 | inactive: 3.39%
47 | COc1ccc(N(C)C(=O)CCS(=O)(=O)c2cccc3nsnc23)cc1 | inactive: 2.97%
48 | COc1cccc2sc(N(Cc3cccnc3)C(=O)C3COc4ccccc4O3)nc12 (configuration not stated) | inactive: -4.99%
49 | CCOc1ccc(C(=O)Nc2cccc(-c3nc4cccnc4s3)c2C)cc1OCC | inactive: 1.13%
50 | Cc1ccc2nc3c(cc(C#N)c(=O)n3-c3nnc(SCc4ccccc4Cl)s3)c(=O)n2c1 | inactive: -29.7%

Row | Structure (SMILES) | activity change, negative = cytotoxicity
51 | COc1ccc(/C=C/c2nc(C#N)c(N3CCC(C)CC3)o2)cc1OC | inactive: -8.44%
52 | COc1ccc(Nc2ncc3c(n2)CCN(Cc2ccc(Br)s2)C3)c(OC)c1 | inactive: -2.53%
53 | CCN(c1ccccc1)c1nnc(NC(=O)Nc2ccc(C)cc2)s1 | inactive: 6.82%
54 | CSc1ccc(CCNC(=O)c2ccc(-n3c(C)cc4c3CCCC4)cc2)cc1 | inactive: 23.4%
55 | CC(=O)N1N=C(c2ccc(C)cc2)CC1c1cn(-c2ccccc2)nc1-c1cccs1 (configuration not stated) | inactive: 17.4%
56 | CSc1ccc(CCNC(=O)c2ccc(CS(=O)Cc3ccc(Cl)cc3)o2)cc1 (configuration not stated) | inactive: -1.74%
57 | Cc1ccc2nc(-c3ccc(Cl)c(NC(=O)c4ccc(Br)o4)c3)oc2c1 | inactive: 12.7%
58 | CSc1nc2c([nH]c3ccccc32)c(=O)n1-c1ccc(C)cc1 | inactive: 13.7%
59 | Cc1ccc(C)c(N2CCN(S(=O)(=O)c3cc(C(=O)Nc4cc(Cl)cc(Cl)c4)ccc3F)CC2)c1 | inactive: 5.77%
60 | Cc1ccc(Cl)cc1NC(=O)c1cc(S(=O)(=O)N2CCCCCC2)cn1C | inactive: 2.8%
61 | CCc1ccc2c(c1)NC(c1cccnc1)=NC(c1ccc(C(C)(C)C)cc1)=N2 | inactive: -24.2%
62 | COc1cc(C2CC(=O)Nc3c2c(C)nn3-c2nncc(-c3ccccc3)n2)cc(OC)c1OC (configuration not stated) | inactive: 11.2%
63 | CCN(c1ccccc1)S(=O)(=O)c1nnc(NC(=O)c2ccco2)s1 | inactive: 0.743%
64 | CCOc1ccc(NS(=O)(=O)c2ccc3nc(-c4ccccc4)[nH]c3c2)cc1 | inactive: -28.6%
65 | Cc1ccccc1-c1nnc(SCC(=O)N2CCCCC2)o1 | inactive: -2.68%
66 | COc1cc(OC)c(Nc2c3c(nc4nc(-c5cccs5)nn24)CCCC3)cc1Cl | inactive: -16.2%
67 | COc1ccc(-c2nc3scc(CCNC(=O)Cc4ccc(F)cc4)n3n2)cc1 | inactive: 3.88%
68 | Cc1ccc(-n2ncc(C(=O)Nc3c(Cl)cccc3Cl)c2C2CCNCC2)cc1 | inactive: 18.5%
69 | Cc1csc2nc(COc3ccccc3NC(=O)c3ccccc3Cl)cc(=O)n12 | inactive: 22.3%
70 | COc1cc(CN(C(=O)COc2ccc(Cl)c(C)c2)c2ccccn2)cc(OC)c1OC | inactive: -2.68%
71 | Cc1ccc(-c2nc(CS(=O)(=O)CC(=O)Nc3cc(C)ccc3C)c(C)o2)cc1 | inactive: -15%
72 | Cc1ccn2c(=O)c(C(=O)NCc3ccccc3Cl)c(O)nc2c1 | inactive: -0.274%
73 | CCc1ccccc1Nc1nn2c(=O)c3ccc(C(=O)NC4CCCCC4)cc3nc2s1 | inactive: 4.17%
74 | CC1(C(=O)Nc2ncc(Cc3ccc(Br)cc3)s2)Cc2ccccc2C(=O)O1 (configuration not stated) | inactive: -1.03%
75 | Cc1ccc(N2CC(NC(=O)C3CCCCC3)CC2=O)cc1C (configuration not stated) | inactive: 0.449%

Row | Structure (SMILES) | activity change, negative = cytotoxicity
76 | COC(=O)C(CCSC)NC(=O)c1cc2c(n(-c3ccc(OC)cc3)c1=O)CC(C)(C)CC2=O (configuration not stated) | inactive: 6.82%
77 | COc1cccc(C(=O)Nc2ccc(NC(=O)c3ccc(C(C)(C)C)cc3)cc2)c1 | inactive: -2.38%
78 | CN1CCN(C(=O)Nc2cccc(Cl)c2)c2cccnc21 | inactive: -5.43%
79 | Cc1ccc(CNC(=O)C2CCCN(S(=O)(=O)c3ccc4c(ccn4C)c3)C2)cc1 (configuration not stated) | inactive: 1.79%
80 | CCCCN(CCCC)CCNC(=O)c1cc(=O)[nH]c2ccc(S(=O)(=O)N3CCCCCC3)cc12 | inactive: 1.24%
81 | CC(C)c1ccc(NC(=O)CSc2nc(=O)n(Cc3cccnc3)c3c2CCC3)cc1 | inactive: 1.27%
82 | COc1ccc(CCNC(=O)Cn2cc(S(=O)(=O)Cc3cccc(Cl)c3)c3ccccc32)cc1OC | inactive: -22.3%
83 | CCc1cnc2c(c1SCC(=O)Nc1cc(Cl)ccc1OC)c(=O)n(C)c(=O)n2C | inactive: -1.13%
84 | Cc1ccc(Cl)cc1NC(=O)CSc1nc(C)c(C)c(C)c1C#N | inactive: 0.732%
85 | CCOC(=O)c1cnc2c(C(F)(F)F)cccc2c1Nc1cccc(C(=O)OC)c1 | inactive: -9.69%
86 | Cc1cc(C)c(NC(=O)CSc2ncc(S(=O)(=O)c3ccc(C(C)(C)C)cc3)c(=O)[nH]2)c(C)c1 | inactive: 3.39%
87 | O=C(NC1CCCC1)c1ccc2c(c1)N(Cc1ccccc1Cl)C(=O)c1ccccc1S2 | inactive: 2.96%
88 | CCc1ccc(CNC(=O)C2CCN(C(=O)N3CC(CC)Oc4ccc(C)cc43)CC2)cc1 (configuration not stated) | inactive: -16.3%
89 | COc1ccccc1CNC(=O)CN1C(=O)CCc2cc(S(=O)(=O)N3CCOCC3)ccc21 | inactive: 19.1%
90 | O=C(Nc1ccc2nc(SCC(=O)N3CCCC3)sc2c1)c1ccccc1F | inactive: -11.8%
91 | CCc1ccc(NC(=O)CCCc2nc(-c3ccco3)no2)cc1 | inactive: -3.83%
92 | COc1cc2[nH]c(=O)n(CCCC(=O)NCc3ccccc3)c(=O)c2cc1OC | inactive: 2.26%
93 | Cc1ccc(OCc2nc(-c3ccc(C(=O)NCCc4ccc(S(N)(=O)=O)cc4)cc3)oc2C)cc1 | inactive: 1.26%
94 | COC(=O)c1c(NC(=O)CCCOc2ccccc2C)sc2c1CCC(C)C2 (configuration not stated) | inactive: 3.38%
95 | CCOc1ccc(NC(=O)CNS(=O)(=O)c2ccc(Br)s2)cc1 | inactive: -7.79%
96 | CCOC(=O)c1sc2ccccc2c1S(=O)(=O)N1CCN(c2ccccc2)CC1 | inactive: 5.97%
97 | CC1CN(C(=O)N2CCC(C(=O)NCc3ccco3)CC2)c2cc(Cl)ccc2O1 (configuration not stated) | inactive: -5.45%
